{"source": "PubChem BioAssay AID624296", "about": "(National Center for Advancing Translational Sciences (NCATS), 2012)", "note": "Screen size: about 350,000 compounds; about 9,900 (2.8%) were called active. This list was built around the results that the source calls inconclusive (neither active nor inactive); the mix of calls is not that of the screen. Calls come from the whole dose curve; as a rule, active = well fitted activation curve with a large enough effect; inconclusive = small, poorly fitted or top-dose-only effect; inactive = no such curve, though single readings can be large or run the other way. No potency is given beside an inconclusive call; the fits are too rough. Potency is the fitted concentration of half-maximal effect; tags give direction and shape of the fitted curve.", "data": [{"assay": "A quantitative high throughput screen for small molecules that induce DNA re-replication in MCF 10a normal breast cells; note: nearly all actives have a fitted effect of over 50% in size.", "details": "MCF 10A DNA re-replication, Hoechst nuclear intensity, 48 h; series mostly up to 46.1 µM", "values": [{"smiles": "CCC(C)NC(=O)CN1c2cccc3cccc(c23)S1(=O)=O", "note": "(stereo unspecified)", "Potency": "inactive"}, {"smiles": "CNS(=O)(=O)c1cccc(C(=O)OCC(=O)c2c(N)n(C)c(=O)n(C)c2=O)c1", "Potency": "inactive"}, {"smiles": "O=c1oc2ccc(C#CC3(O)CCCCC3)cc2cc1-n1cc(-c2ccccn2)nn1", "Potency": "inconclusive [activator, full curve, poor fit]"}, {"smiles": "CCOc1ccc(C(=O)Nc2ccccc2C#N)cc1[N+](=O)[O-]", "Potency": "inactive"}, {"smiles": "CCCCn1c(N)c(N(CC(C)C)C(=O)c2cc3ccccc3cc2OC)c(=O)[nH]c1=O", "Potency": "inconclusive [activator, partial curve, poor fit]"}, {"smiles": "CCc1ccc(/C=C2\\Oc3cc(OC(=O)N4CCOCC4)ccc3C2=O)cc1", "Potency": "inconclusive [activator, single point]"}, {"smiles": "O=C(Nc1ccc(S(=O)(=O)Nc2ncccn2)cc1)c1ccc(F)c(S(=O)(=O)N2CCOCC2)c1", "Potency": "inactive"}, {"smiles": "Cc1cc(O)cc2c(=O)c3ccccc3sc12", "Potency": "active: 18.4 µM"}, {"smiles": "Cc1ccc(/C=N/Nc2nc3ccccc3[nH]2)s1", "Potency": "inconclusive [activator, single point]"}, {"smiles": "O=C(N/N=C/c1cccc(F)c1)c1c(O)c2c([nH]c1=O)CCCC2", "Potency": "inactive"}, {"smiles": "O=C(CN1C(=O)COc2ccc(Cl)cc21)NC1CC1", "Potency": "inactive"}, {"smiles": "Cc1cc2nc(Sc3c([N+](=O)[O-])nc(C)n3Cc3ccccc3)[nH]c2cc1C", "Potency": "active: 20.6 µM"}, {"smiles": "O=c1c2ccccc2n(CC(O)CN2CCOCC2)c2ccccc12", "note": "(stereo unspecified)", "Potency": "inconclusive [activator, single point]"}, {"smiles": "CCOc1ccc(/C=N/OCC(=O)NC(c2ccccc2)c2ccccc2)cc1", "Potency": "inconclusive [activator, single point]"}, {"smiles": "O=C(NCC1CCCO1)c1cccc(NS(=O)(=O)c2ccc(Br)cc2)c1", "note": "(stereo unspecified)", "Potency": "inconclusive [activator, partial curve, poor fit]"}, {"smiles": "N#CC1=C(N)NC(SCC(=O)c2ccccc2)=C(C#N)C12CCCC2", "Potency": "inconclusive [activator, single point]"}, {"smiles": "Cc1cc(Cl)c(S(=O)(=O)Nc2ccc3c(c2)OCCO3)cc1OCC(=O)NC1CCCCC1", "Potency": "inconclusive [activator, partial curve, poor fit]"}, {"smiles": "COc1cc(Cl)c(NS(=O)(=O)c2ccc(-c3ccc(=O)[nH]n3)o2)c(OC)c1", "Potency": "inactive"}, {"smiles": "COCCCNC(=S)Nc1ccccc1C", "Potency": "inconclusive [activator, single point]"}, {"smiles": "O=C(Cc1csc(-c2ccccc2)n1)NCc1ccco1", "Potency": "inconclusive [activator, full curve, poor fit]"}, {"smiles": "COc1ccc(NC(=O)c2ccc(-c3ccccc3C(F)(F)F)o2)cc1", "Potency": "inconclusive [activator, single point]"}, {"smiles": "O=C(NCc1ccncc1)C12CC3CC(CC(Cl)(C3)C1)C2", "Potency": "inconclusive [activator, full curve, poor fit]"}, {"smiles": "COc1ccc(CNCC(O)COc2cccc3c2OC(C)(C)C3)cc1", "note": "(stereo unspecified)", "Potency": "inconclusive [activator, partial curve, poor fit]"}, {"smiles": "Cc1cc(C)nc(NCc2ccc(Cl)cc2)n1", "Potency": "inactive"}, {"smiles": "CCOc1ccc(S(=O)(=O)Nc2ccc(C(=O)N3CCCC3)cc2)cc1C(N)=O", "Potency": "inactive"}, {"smiles": "O=C(O)C(CCCCNS(=O)(=O)c1ccc(F)cc1)NS(=O)(=O)c1ccc(F)cc1", "note": "(stereo unspecified)", "Potency": "inactive"}, {"smiles": "O=C(c1ccc(Cl)cc1)c1ccc(OCC(O)CN2CCOCC2)cc1", "note": "(stereo unspecified)", "Potency": "inactive"}, {"smiles": "CCOC(=O)/C(C#N)=C1/SC(CCO)C(=O)N1c1ccccc1", "note": "(stereo unspecified)", "Potency": "inactive"}, {"smiles": "COc1ccc(C(=O)O)c(O)c1", "Potency": "inconclusive [activator, partial curve, poor fit]"}, {"smiles": "NC(=S)n1[nH]c(-c2ccc([N+](=O)[O-])cc2)c(N=Nc2ccc(Cl)cc2)c1=O", "Potency": "inactive"}, {"smiles": "COCCNC(=O)c1cccc(OC2CCN(Cc3ccc(Cl)c(F)c3)CC2)c1", "Potency": "inactive"}, {"smiles": "O=C(NNC(=O)c1cncc(Br)c1)c1ccncc1", "Potency": "inactive"}, {"smiles": "CN1CCN(C(=O)Cn2ncc3c([nH]c4ccccc43)c2=O)CC1", "Potency": "inactive"}, {"smiles": "CCN(CC)S(=O)(=O)c1ccc(OC)c(NS(=O)(=O)c2ccc(F)cc2)c1", "Potency": "inconclusive [activator, single point]"}, {"smiles": "Cc1ccc2nc(C)c(C(=O)N/N=C/c3cccs3)n2c1", "Potency": "inconclusive [activator, single point]"}, {"smiles": "COc1cccc(N(C(=O)c2ccco2)c2nc(-c3sc(NC(=O)c4ccco4)nc3C)cs2)c1", "Potency": "inconclusive [activator, full curve, poor fit]"}, {"smiles": "CC(C)c1nnc(NC(=O)CS(=O)(=O)Cc2ccccc2)s1", "Potency": "inconclusive [activator, partial curve, poor fit]"}, {"smiles": "CCCCC[C@H](O)/C=C/C1C(=O)C=C[C@H]1C/C=C\\CCCC(=O)OC", "note": "(stereo partly specified)", "Potency": "active: 18.4 µM"}, {"smiles": "N=c1c(C(=O)NCc2ccc(F)cc2)cc2c(=O)n3ccccc3nc2n1Cc1cccnc1", "Potency": "active: 5.8 µM"}, {"smiles": "COc1ccccc1CN1CC(C(=O)N2CCCCCCC2)CCC1=O", "note": "(stereo unspecified)", "Potency": "inactive"}, {"smiles": "COc1ccc(Cc2nnc(SCC(=O)Nc3nc(C)cs3)o2)cc1", "Potency": "inactive"}, {"smiles": "O=C(NCc1ccccc1)c1ccc2nc(-c3ccco3)c(-c3ccco3)nc2c1", "Potency": "inconclusive [activator, single point]"}, {"smiles": "COc1ccc(-n2nc3cc(C)c(N)cc3n2)cc1Cl", "Potency": "active: 3.26 µM"}, {"smiles": "Cc1ccc(OCc2nnc(SCc3cc(=O)[nH]c4ccccc34)n2-c2ccccc2)cc1", "Potency": "inactive"}, {"smiles": "COc1ccc(C(=O)Nc2cccc(NC(=O)c3ccc(OC)c(OC)c3)n2)cc1OC", "Potency": "inconclusive [activator, single point]"}, {"smiles": "CCCCOc1ccc(-c2ncc(Cl)cn2)cc1", "Potency": "inconclusive [activator, single point]"}, {"smiles": "COc1ccc(N2C(=O)c3ccccc3NC23CCCCC3)cc1", "Potency": "inconclusive [activator, partial curve, poor fit]"}, {"smiles": "COc1ccc(-c2cn3cccnc3n2)cc1", "Potency": "inconclusive [activator, single point]"}, {"smiles": "CC(=O)NC(=C(Cl)Cl)S(=O)(=O)c1ccccc1", "Potency": "active: 13 µM"}, {"smiles": "CCCc1cc(=O)oc2cc(C)cc(OCC(=O)Nc3ccc(CN4CCOCC4)cc3)c12", "Potency": "inconclusive [activator, partial curve, poor fit]"}, {"smiles": "O=C(Nc1c2c(nn1-c1ccc([N+](=O)[O-])cc1)CS(=O)(=O)C2)c1ccccc1F", "Potency": "inactive"}, {"smiles": "Nn1c(C2CCCCC2)nc2ccccc2c1=O", "Potency": "inactive"}, {"smiles": "O=C1OC(Sc2ccccc2)(c2ccccc2)c2ccccc21", "note": "(stereo unspecified)", "Potency": "inconclusive [activator, partial curve, poor fit]"}, {"smiles": "Brc1cnc(N2CCCCC2)nc1N1CCOCC1", "Potency": "inconclusive [activator, single point]"}, {"smiles": "COc1ccc(CCNC(=O)COc2ccc(-c3ccccc3)cc2)cc1OC", "Potency": "inconclusive [activator, partial curve, poor fit]"}, {"smiles": "Cc1ccc(S(=O)(=O)N2CCOCC2)cc1NC(=O)CNCc1ccc(Cl)cc1Cl", "Potency": "inactive"}, {"smiles": "CC(C)Cc1cc(C(=O)Nc2ccc(Br)cc2)no1", "Potency": "inconclusive [activator, single point]"}, {"smiles": "COc1ccc(/C=N/NC(=O)CCCCCNC(=O)c2ccccc2)cc1", "Potency": "inconclusive [activator, full curve, poor fit]"}, {"smiles": "CCOC(=O)N(O)c1ccc(C=Cc2ccccc2)cc1", "Potency": "inconclusive [activator, single point]"}, {"smiles": "CCCCN=C(NNc1ccc(Br)cc1)C(=O)OCC", "Potency": "inconclusive [activator, single point]"}, {"smiles": "Cc1ccc(S(=O)(=O)n2nc(-c3cccnc3)nc2N)cc1", "Potency": "inconclusive [activator, partial curve, poor fit]"}, {"smiles": "Cc1ccc(C)c(N2CCN(C(=O)c3ccc4c(c3)c(C)c(C)n4C)CC2)c1", "Potency": "active: 5.17 µM"}, {"smiles": "O=C1N(Cc2cccc(Cl)c2)C[C@@H]2C[C@@H](c3cccn3-c3nccs3)N3CCC[C@@]123", "Potency": "inconclusive [activator, single point]"}, {"smiles": "CCCCCC(=O)NC(=S)Nc1ccc(N2CCCCC2)c(Cl)c1", "Potency": "inconclusive [activator, single point]"}, {"smiles": "Cc1ccc(N=Cc2c(O)n(-c3cc(Cl)ccc3N3CCOCC3)c(=O)c3ccccc23)cc1C", "Potency": "inconclusive [activator, single point]"}, {"smiles": "CCN(c1ccccc1)S(=O)(=O)c1ccc(Cl)nc1", "Potency": "inconclusive [activator, partial curve, poor fit]"}, {"smiles": "Cc1ccccc1NC(=S)NCCC(c1ccccc1)c1ccccc1", "Potency": "inconclusive [activator, single point]"}, {"smiles": "C=C(C)COc1ccc(-c2nc(N)ncc2Oc2ccccc2OCC)c(O)c1", "Potency": "inconclusive [activator, single point]"}, {"smiles": "S=C(Nc1ccc(Cl)cc1)c1nc2ccccc2[nH]1", "Potency": "inconclusive [activator, single point]"}, {"smiles": "Cc1ccc(C(=O)Nc2cccc(NC(=O)CN3CCCCC3)c2)cc1", "Potency": "inconclusive [activator, single point]"}, {"smiles": "Cc1cc(C)cc(NS(=O)(=O)c2cc(Br)cnc2N)c1", "Potency": "inconclusive [activator, single point]"}]}]}
